Reference: the supplement of paper PMC4166925
± gives the standard deviation of the averaged measurements. Whole data set: some 33,000 sequences, median “E-score (dimensionless, -0.5 to 0.5)” near -0.046, cut for the highest 2% near 0.36. The list shows a part of the results.

What follows are sequences tested on T1, SpTbr T-box DNA-binding domain (GST fusion) (assay: PBM E-score of 8-mer (E-score (dimensionless, -0.5 to 0.5)); Tbr is Tbrain of the sea star Patiria miniata (Pm) or the sea urchin Strongylocentrotus purpuratus (Sp); higher = stronger binding preference; most listed sequences are background and not binding sites). Conditions: the construct has about 5 more residues each side.
T1 sequence: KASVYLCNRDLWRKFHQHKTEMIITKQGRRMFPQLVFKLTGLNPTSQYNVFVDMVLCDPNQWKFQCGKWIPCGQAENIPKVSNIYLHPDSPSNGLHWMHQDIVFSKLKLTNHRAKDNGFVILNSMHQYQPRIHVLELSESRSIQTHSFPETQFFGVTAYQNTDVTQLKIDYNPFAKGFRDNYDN
In short: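 Primer extension turned Universal Agilent oligonucleotide arrays double-stranded. They were incubated with 200 nM protein in PBS (pH 7.5); the protein was a GST-fused Tbr T-box DNA-binding domain expressed in BL21 E. coli at 20 °C and purified on glutathione. Every ungapped 8-mer was scored from the scanned, quantified probe intensities, and the Universal PBM Analysis Suite gave each an enrichment E-score averaged over duplicate arrays.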

Sequence	PBM E-score of 8-mer
TATAGGCA	-0.196 ± 0.006
TAGTTGAA	-0.0612 ± 0.025
CTCTCAAA	0.0429 ± 0.0086
AAGCTGGT	-0.00632 ± 0.14
TGAAGCCA	-0.0352 ± 0.019
ATAACAGC	0.19 ± 0.016
CCACGTTC	0.0649 ± 0.032
ATTGCTTG	0.127 ± 0.0089
GGTAAGGA	0.0123 ± 0.027
CGTCCACC	-0.1393 ± 0.0008
AAAACAAT	-0.0902 ± 0.0024
CATTGGGC	-0.191 ± 0.039
ATCCTTCA	-0.118 ± 0.06
GACTTCAC	0.142 ± 0.021
GCGAGCGC	0.296 ± 0.024
GCACTCAC	0.268 ± 0.012
GGCTTAAA	-0.2752 ± 0.0023
AAAATCGT	0.138 ± 0.016
CAGAGCGC	-0.00751 ± 0.044
AGATCCAT	-0.205 ± 0.039
GTGCCAAC	0.4114 ± 0.0035
TAAACTTA	-0.237 ± 0.068

Sequence	PBM E-score of 8-mer
ATGGGAGA	-0.0645 ± 0.14
CTGTTTCA	-0.132 ± 0.012
GGAGAACC	0.0265 ± 0.00056
AGGCGCGG	0.291 ± 0.017
AGGGTCCC	-0.224 ± 0.073
ATCCCTGA	-0.293 ± 0.0063
GCGAAGCC	0.11 ± 0.025
CCGAAAAG	0.0174 ± 0.0071
CTGTCTCA	0.0938 ± 0.061
CAATATCC	-0.252 ± 0.045
CCGGCTCC	-0.16 ± 0.029
AGGGCCAC	-0.156 ± 0.0034
AGTGCGGA	0.257 ± 0.023
GTTCGACA	0.126 ± 0.014
AGCTTTGG	-0.111 ± 0.051
AAACAGAT	-0.136 ± 0.01
ACGTAATG	-0.214 ± 0.021
GAAACTTC	-0.168 ± 0.042
ATCCGTCC	-0.137 ± 0.086
CGGGTACC	-0.0785 ± 0.021
ATTTCCAC	0.0969 ± 0.035
AGCTCTTG	-0.285 ± 0.025

Sequence	PBM E-score of 8-mer
ATTAAAGG	-0.0602 ± 0.029
AGTGCTGA	0.0461 ± 0.029
ACGGCGGC	0.12 ± 0.0025
CCCTTACC	0.0283 ± 0.022
ACGAACCG	0.192 ± 0.063
AGCCTAAT	-0.166 ± 0.091
AATATTAA	-0.0999 ± 0.0093
ATATATGA	0.0551 ± 0.0072
AACAACGC	0.164 ± 0.0066
CGGTCCAG	-0.263 ± 0.054
ACGCTAGG	0.112 ± 0.0082
CTTTCGTA	-0.103 ± 0.039
GACGTACC	-0.238 ± 0.0047
GCCAGGCA	-0.0123 ± 0.022
CACCCTTA	0.269 ± 0.032
ACGTCAAA	0.0165 ± 0.054
GTATGATA	-0.0654 ± 0.05
AAGCTTGG	-0.224 ± 0.018
ACGCCATG	-0.0492 ± 0.049
CGCTGGTA	-0.00191 ± 0.15
AACCACCT	0.0395 ± 0.04
AGGAGGAA	-0.102 ± 0.02

Sequence	PBM E-score of 8-mer
ACCCAAGT	0.134 ± 0.054
ATACTGGG	-0.276 ± 0.051
AACTAGTC	0.0498 ± 0.011
AACGATCG	0.163 ± 0.017
AGCGTGAC	0.3372 ± 0.0013
CAGGAACC	-0.269 ± 0.046
CTCTTCCC	-0.0127 ± 0.025
CACGTCAA	0.133 ± 0.028
ATATCCAT	-0.037 ± 0.059
AATTGGTC	-0.186 ± 0.00051
AGATCTAT	0.00585 ± 0.021
AGGGCCCC	-0.221 ± 0.043
TGAGCGCA	0.00286 ± 0.049
CGCCCAGA	0.0494 ± 0.0041
ACCGTTTG	-0.181 ± 0.039
AGGGGTCC	-0.234 ± 0.0071
CCTGGCGA	0.138 ± 0.064
AAAGTTGC	0.13 ± 0.042
TACCGTCA	0.178 ± 0.065
TAGCTCAA	-0.147 ± 0.011
